{"source": "the supplement of paper PMC8728848", "binders": {"B1": {"name": "XL-35 (Xenopus laevis) (protein)", "chain": "MLVHILLLLVTGGLSQSCDPVVIVASKNMVKQLDCDKFRNCKEIKDSNEEAQDGIYTLTSPDGISYQTFCDMTTNGGGWTLVASVHENNMAGKCTIGDRWSSQQGNRADYPEGDGNWANYNTFGSAGGATSDDYKNPGYYDIEAYNLGVWHVPNKTPLSVWRNSSLQRYRTTDGILFKHGGNLFSLYRIYPVKYGIGSCSKDSGPTVPVVYDLGSANLTASFYSPGFRSQFTPGYIQFRPINTEKAALALCPGMKMESCNVEHVCIGGGGYFPEADPRQCGDFAAYDFNGYGTKKFNSAGIEITEAAVLLFYL"}}, "assay_in_all_cases": "glycan array binding signal (z-score within array); higher = stronger binding", "conditions_in_all_cases": "glycan notation: IUPAC condensed, linker removed", "key": {"Fuc(b1-3)GlcNAc": {"molecular_target": "Fuc(b1-3)GlcNAc", "in_short": "(§1)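 Negative Z-scores can be read as non-binding. The Z-score is calculated within each array and then averaged across arrays of one protein sequence at different concentrations or buffers and across linkers. Arrays, 3228 in all, were curated from the Consortium for Functional Glycomics database and kept only where the protein sequence was available.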"}, "Gal(a1-2)Gal": {"molecular_target": "Gal(a1-2)Gal", "in_short": "as §1"}, "Gal(a1-3)Gal": {"molecular_target": "Gal(a1-3)Gal", "in_short": "as §1"}, "Gal(a1-3)Gal(b1-3)Glc": {"molecular_target": "Gal(a1-3)Gal(b1-3)Glc", "in_short": "as §1"}, "Gal(a1-3)Gal(b1-3)GlcNAc": {"molecular_target": "Gal(a1-3)Gal(b1-3)GlcNAc", "in_short": "as §1"}, "[1]": {"molecular_target": "Gal(a1-3)Gal(b1-3)GlcNAc(b1-2)Man", "in_short": "as §1"}, "[2]": {"molecular_target": "Gal(a1-3)Gal(b1-3)GlcNAc(b1-2)Man(a1-3)[Gal(a1-3)Gal(b1-3)GlcNAc(b1-2)Man(a1-6)]Man(b1-4)GlcNAc(b1-4)GlcNAc", "in_short": "as §1"}, "[3]": {"molecular_target": "Gal(a1-3)Gal(b1-3)GlcNAc(b1-3)GalNAc", "in_short": "as §1"}, "[4]": {"molecular_target": "Gal(a1-3)Gal(b1-3)GlcNAc(b1-6)GalNAc", "in_short": "as §1"}, "[5]": {"molecular_target": "Gal(a1-3)Gal(b1-3)[Fuc(a1-4)]GlcNAc(b1-2)Man(a1-3)[Gal(a1-3)Gal(b1-3)[Fuc(a1-4)]GlcNAc(b1-2)Man(a1-6)]Man(b1-4)GlcNAc(b1-4)GlcNAc", "in_short": "as §1"}, "Gal(a1-3)Gal(b1-4)Glc": {"molecular_target": "Gal(a1-3)Gal(b1-4)Glc", "in_short": "as §1"}, "Gal(a1-3)Gal(b1-4)GlcNAc": {"molecular_target": "Gal(a1-3)Gal(b1-4)GlcNAc", "in_short": "as §1"}, "[6]": {"molecular_target": "Gal(a1-3)Gal(b1-4)GlcNAc(b1-2)Man", "in_short": "as §1"}, "[7]": {"molecular_target": "Gal(a1-3)Gal(b1-4)GlcNAc(b1-2)Man(a1-3)[Gal(a1-3)Gal(b1-4)GlcNAc(b1-2)Man(a1-6)]Man(b1-4)GlcNAc(b1-4)GlcNAc", "in_short": "as §1"}, "[8]": {"molecular_target": "Gal(a1-3)Gal(b1-4)GlcNAc(b1-3)GalNAc", "in_short": "as §1"}, "[9]": {"molecular_target": "Gal(a1-3)Gal(b1-4)GlcNAc(b1-6)GalNAc", "in_short": "as §1"}, "[10]": {"molecular_target": "Gal(a1-3)Gal(b1-4)[Fuc(a1-3)]GalNAc", "in_short": "as §1"}, "[11]": {"molecular_target": "Gal(a1-3)Gal(b1-4)[Fuc(a1-3)]GlcNAc", "in_short": "as §1"}, "[12]": {"molecular_target": "Gal(a1-3)Gal(b1-4)[Fuc(a1-3)]GlcNAc(b1-2)Man(a1-3)[Gal(a1-3)Gal(b1-4)[Fuc(a1-3)]GlcNAc(b1-2)Man(a1-6)]Man(b1-4)GlcNAc(b1-4)GlcNAc", "in_short": "as §1"}, "Gal(a1-3)GalNAc": {"molecular_target": "Gal(a1-3)GalNAc", "in_short": "as §1"}, "Gal(a1-3)GlcNAc": {"molecular_target": "Gal(a1-3)GlcNAc", "in_short": "as §1"}, "[13]": {"molecular_target": "Gal(a1-3)[Gal(a1-4)]Gal(b1-4)GlcNAc", "in_short": "as §1"}, "[14]": {"molecular_target": "Gal(a1-4)Gal(b1-3)GlcNAc(b1-2)Man(a1-3)[Gal(a1-4)Gal(b1-3)GlcNAc(b1-2)Man(a1-6)]Man(b1-4)GlcNAc(b1-4)GlcNAc", "in_short": "as §1"}, "Gal(a1-4)Gal(b1-4)Gal": {"molecular_target": "Gal(a1-4)Gal(b1-4)Gal", "in_short": "as §1"}, "Gal(a1-4)Gal(b1-4)GalNAc": {"molecular_target": "Gal(a1-4)Gal(b1-4)GalNAc", "in_short": "as §1"}, "Gal(a1-4)Gal(b1-4)Glc": {"molecular_target": "Gal(a1-4)Gal(b1-4)Glc", "in_short": "as §1"}, "Gal(a1-4)Gal(b1-4)GlcNAc": {"molecular_target": "Gal(a1-4)Gal(b1-4)GlcNAc", "in_short": "as §1"}, "[15]": {"molecular_target": "Gal(a1-4)Gal(b1-4)GlcNAc(b1-2)Man(a1-3)[Gal(a1-4)Gal(b1-4)GlcNAc(b1-2)Man(a1-6)]Man(b1-4)GlcNAc(b1-4)GlcNAc", "in_short": "as §1"}, "[16]": {"molecular_target": "Gal(a1-4)Gal(b1-4)GlcNAc(b1-3)Gal(b1-4)Glc", "in_short": "as §1"}, "Gal(a1-4)GlcNAc": {"molecular_target": "Gal(a1-4)GlcNAc", "in_short": "as §1"}, "Gal(a1-6)Glc": {"molecular_target": "Gal(a1-6)Glc", "in_short": "as §1"}, "Gal(b1-2)Gal": {"molecular_target": "Gal(b1-2)Gal", "in_short": "as §1"}, "Gal(b1-3)Gal": {"molecular_target": "Gal(b1-3)Gal", "in_short": "as §1"}, "Gal(b1-3)Gal(b1-4)GlcNAc": {"molecular_target": "Gal(b1-3)Gal(b1-4)GlcNAc", "in_short": "as §1"}, "Gal(b1-3)GalNAc": {"molecular_target": "Gal(b1-3)GalNAc", "in_short": "as §1"}, "[17]": {"molecular_target": "Gal(b1-3)GalNAc(a1-3)[Fuc(a1-2)]Gal(b1-4)Glc", "in_short": "as §1"}, "[18]": {"molecular_target": "Gal(b1-3)GalNAc(a1-3)[Fuc(a1-2)]Gal(b1-4)GlcNAc", "in_short": "as §1"}}, "note": "The other results are listed elsewhere or left out."}
{"binder": "B1", "values": [{"measurement": "glycan array binding signal (z-score)", "setting": "Fuc(b1-3)GlcNAc", "value": 0.051}, {"measurement": "glycan array binding signal (z-score)", "setting": "Gal(a1-2)Gal", "value": -0.152}, {"measurement": "glycan array binding signal (z-score)", "setting": "Gal(a1-3)Gal", "value": 0.019}, {"measurement": "glycan array binding signal (z-score)", "setting": "Gal(a1-3)Gal(b1-3)Glc", "value": 2.36}, {"measurement": "glycan array binding signal (z-score)", "setting": "Gal(a1-3)Gal(b1-3)GlcNAc", "value": -0.289}, {"measurement": "glycan array binding signal (z-score)", "setting": "[1]", "value": -0.202}, {"measurement": "glycan array binding signal (z-score)", "setting": "[2]", "value": -0.081}, {"measurement": "glycan array binding signal (z-score)", "setting": "[3]", "value": -0.401}, {"measurement": "glycan array binding signal (z-score)", "setting": "[4]", "value": -0.14}, {"measurement": "glycan array binding signal (z-score)", "setting": "[5]", "value": 0.5}, {"measurement": "glycan array binding signal (z-score)", "setting": "Gal(a1-3)Gal(b1-4)Glc", "value": 0.121}, {"measurement": "glycan array binding signal (z-score)", "setting": "Gal(a1-3)Gal(b1-4)GlcNAc", "value": -0.137}, {"measurement": "glycan array binding signal (z-score)", "setting": "[6]", "value": -0.373}, {"measurement": "glycan array binding signal (z-score)", "setting": "[7]", "value": 0.152}, {"measurement": "glycan array binding signal (z-score)", "setting": "[8]", "value": -0.045}, {"measurement": "glycan array binding signal (z-score)", "setting": "[9]", "value": -0.545}, {"measurement": "glycan array binding signal (z-score)", "setting": "[10]", "value": -0.09}, {"measurement": "glycan array binding signal (z-score)", "setting": "[11]", "value": 0.411}, {"measurement": "glycan array binding signal (z-score)", "setting": "[12]", "value": -0.299}, {"measurement": "glycan array binding signal (z-score)", "setting": "Gal(a1-3)GalNAc", "value": -0.122}, {"measurement": "glycan array binding signal (z-score)", "setting": "Gal(a1-3)GlcNAc", "value": 15.9}, {"measurement": "glycan array binding signal (z-score)", "setting": "[13]", "value": 0.307}, {"measurement": "glycan array binding signal (z-score)", "setting": "[14]", "value": 0.019}, {"measurement": "glycan array binding signal (z-score)", "setting": "Gal(a1-4)Gal(b1-4)Gal", "value": -0.113}, {"measurement": "glycan array binding signal (z-score)", "setting": "Gal(a1-4)Gal(b1-4)GalNAc", "value": -0.077}, {"measurement": "glycan array binding signal (z-score)", "setting": "Gal(a1-4)Gal(b1-4)Glc", "value": 0.585}, {"measurement": "glycan array binding signal (z-score)", "setting": "Gal(a1-4)Gal(b1-4)GlcNAc", "value": 0.242}, {"measurement": "glycan array binding signal (z-score)", "setting": "[15]", "value": 0.247}, {"measurement": "glycan array binding signal (z-score)", "setting": "[16]", "value": -0.416}, {"measurement": "glycan array binding signal (z-score)", "setting": "Gal(a1-4)GlcNAc", "value": -0.192}, {"measurement": "glycan array binding signal (z-score)", "setting": "Gal(a1-6)Glc", "value": -0.06}, {"measurement": "glycan array binding signal (z-score)", "setting": "Gal(b1-2)Gal", "value": -0.11}, {"measurement": "glycan array binding signal (z-score)", "setting": "Gal(b1-3)Gal", "value": -0.213}, {"measurement": "glycan array binding signal (z-score)", "setting": "Gal(b1-3)Gal(b1-4)GlcNAc", "value": 0.041}, {"measurement": "glycan array binding signal (z-score)", "setting": "Gal(b1-3)GalNAc", "value": -0.037}, {"measurement": "glycan array binding signal (z-score)", "setting": "[17]", "value": -0.227}, {"measurement": "glycan array binding signal (z-score)", "setting": "[18]", "value": -0.337}]}
